± gives the standard deviation of the averaged measurements. Whole data set: some 4,100 sequences, median “relative kcat/Km (krel) vs genomic leader AAAGAU” near 1.7, cut for the highest 2% near 6.5. This is a selection; strong and weak results do not stand in their true shares.
Target: T1, E. coli RNase P holoenzyme (M1 P RNA + rnpA protein) (UniProt P0A7Y8)
T1 sequence: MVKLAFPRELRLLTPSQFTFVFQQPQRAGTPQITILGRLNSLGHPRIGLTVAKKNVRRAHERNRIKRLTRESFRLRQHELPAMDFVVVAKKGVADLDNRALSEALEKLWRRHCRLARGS
Test: relative kcat/Km (krel) vs genomic leader AAAGAU (relative (reference leader = 1)); higher = faster RNase P cleavage
Procedure: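 HTS-Kin: a pool of ptRNA-Met (21C construct) with all 4096 combinations of 5' leader nucleotides N(-6) to N(-1) was processed in vitro by E. coli RNase P (P RNA + rnpA/C5 protein) under multiple-turnover conditions at 37 C, pH 8, 17.5 mM MgCl2. Residual substrate was Illumina-sequenced at several fractions reacted, and relative kcat/Km (krel) was computed by internal competition kinetics, calibrated to the genomic leader (AAAGAU = 1). The listed hexamer is the varied N(-6)..N(-1) leader (DNA letters), and it sits between a fixed 5' stem-loop flank (GCAUGCACGAAAGUGCGUGCUAUGAA) and the mature tRNA-Met starting GGCUACGUAGCUCAGUUGG. Two technical replicates are averaged.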

[1] = fraction of substrate reacted: ~9-10% (9.79% repeat 1, 9.1% repeat 2)
[2] = fraction of substrate reacted: ~13-16% (15.68% repeat 1, 13.17% repeat 2)
[3] = fraction of substrate reacted: ~26-29% (28.66% repeat 1, 26.4% repeat 2)

| Sequence | relative kcat/Km [1] | relative kcat/Km [2] | relative kcat/Km [3] |
| --- | --- | --- | --- |
| AGTTCA | 2.22 ± 0.21 | 2.82 ± 0.86 | 4.24 ± 1.9 |
| CGCTGG | 0.49 ± 0.25 |  |  |
| AGGCTA | 1.03 ± 0.18 | 0.94 ± 0.074 | 0.958 ± 0.43 |
| CGAGTC | 0.979 ± 0.076 | 0.341 ± 0.15 | 0.942 ± 0.19 |
| GGTCGC | 1.81 ± 0.88 | 2.0828 ± 0.002 | 3.37 ± 1.1 |
| TTACGA | 2.09 ± 0.19 | 3.12 ± 0.7 | 4.55 ± 1.8 |
| GCCCCT | 2.4 ± 0.74 | 2.1 ± 0.63 | 3.54 ± 1.2 |
| ATTTTG |  |  | 0.929 ± 0.33 |
| CAATTT | 2.09 ± 0.91 | 2.52 ± 0.44 | 3.35 ± 1.1 |
| TGCTTC | 2.79 ± 0.96 | 2.83 ± 0.76 | 3.73 ± 1.2 |
| ACGGCC | 0.927 ± 0.59 | 0.652 ± 0.11 | 0.509 ± 0.061 |
| CAATCC | 2.1 ± 1.4 | 2.09 ± 0.56 | 2.17 ± 0.12 |
| CGTGAG |  |  | 0.73 ± 0.48 |
| GGAGAA | 0.871 ± 0.17 | 1.33 ± 0.072 | 2.05 ± 0.28 |
| CACCCT | 2.05 ± 0.84 | 2.01 ± 0.14 | 3.13 ± 0.71 |
| GCTACG | 1.24 ± 0.4 |  | 1.37 ± 0.71 |
| ACCATA | 2.8 ± 1.8 | 2.2 ± 0.51 | 3.64 ± 0.82 |
| TCAACG |  | 0.657 ± 0.31 |  |
| GCGGAT |  |  | 1.1 ± 0.55 |
| GGCAAG |  | 1.55 ± 0.4 | 2.65 ± 0.24 |
| GTACGG |  |  | 0.833 ± 0.17 |
| GGACTC | 1.48 ± 0.25 | 1.36 ± 0.13 | 1.47 ± 0.4 |

| Sequence | relative kcat/Km [1] | relative kcat/Km [2] | relative kcat/Km [3] |
| --- | --- | --- | --- |
| GAGAGA | 2.01 ± 0.67 | 2.43 ± 0.81 | 2.73 ± 0.94 |
| GTAGGT |  |  | 2 ± 0.94 |
| AACGGA |  |  | 1.36 ± 0.76 |
| TCACAG | 1.02 ± 0.62 | 0.504 ± 0.44 | 1.92 ± 0.045 |
| GGTGAA | 1.14 ± 0.78 | 1.13 ± 0.16 | 1.4 ± 0.08 |
| GCCAAC | 1.34 ± 0.25 | 1.28 ± 1.1 | 3.94 ± 1 |
| GATCGG | 0.215 ± 0.12 |  |  |
| TAACAC | 3.03 ± 1.2 | 3.51 ± 0.075 | 4.77 ± 1.9 |
| TAATCA | 2.23 ± 1.3 | 1.61 ± 0.08 | 2.53 ± 0.76 |
| TGGGCG |  |  | 0.478 ± 0.11 |
| ACAGAA | 1.81 ± 1.7 |  | 2.3 ± 0.59 |
| ACTGAT | 1.17 ± 0.42 | 1.11 ± 0.03 | 1.29 ± 0.43 |
| TTTGAA | 2.9 ± 1.1 | 3.37 ± 0.8 | 4.46 ± 1.2 |
| TCACGG | 0.543 ± 0.47 |  | 0.429 ± 0.19 |
| TCGGCT | 0.836 ± 0.18 | 0.478 ± 0.28 |  |
| TGTAAC | 2.99 ± 1.7 | 3.99 ± 0.054 | 5.88 ± 2.4 |
| GAGATC | 1.8 ± 0.46 | 1.44 ± 0.09 | 2.21 ± 0.99 |
| ATGCAC | 1.66 ± 0.36 | 1.07 ± 0.31 | 2.04 ± 0.13 |
| AGGCTC |  |  | 0.722 ± 0.43 |
| TCTACA | 1.43 ± 0.68 | 1.87 ± 0.44 | 2.46 ± 1.1 |
| CGTACA | 1.34 ± 0.39 | 1.26 ± 0.3 | 2.36 ± 0.56 |
| AACGCA | 2.99 ± 1.6 | 3.18 ± 0.58 | 4.32 ± 1.4 |

| Sequence | relative kcat/Km [1] | relative kcat/Km [2] | relative kcat/Km [3] |
| --- | --- | --- | --- |
| ACATCT | 2.62 ± 1.1 | 3.25 ± 0.78 | 4.12 ± 1.9 |
| GACGAG |  | 1.49 ± 0.19 | 3.3 ± 0.29 |
| GCTGCT | 0.72 ± 0.62 |  | 0.621 ± 0.4 |
| TCCGGC | 0.889 ± 0.37 |  | 1.66 ± 0.94 |
| AGCCCA | 1.18 ± 0.31 | 1.51 ± 1.4 | 1.81 ± 0.95 |
| ACTATT | 2.31 ± 1.3 | 2.08 ± 0.34 | 2.89 ± 1.1 |
| AGTATA | 2.41 ± 0.73 | 2.99 ± 0.27 | 4.7 ± 2 |
| AGTGTT | 0.435 ± 0.024 |  | 1.34 ± 0.99 |
| AGGTCA |  | 1.42 ± 0.46 | 1.25 ± 0.43 |
| GCGCGG | 0.556 ± 0.25 |  | 0.393 ± 0.23 |
| GTAATT | 1.67 ± 1.2 | 2.308 ± 0.0035 | 2.96 ± 0.9 |
| TAATTG |  |  | 1.08 ± 0.47 |
| ACAGCG |  |  | 1.17 ± 0.16 |
| GCCTAG | 2.58 ± 1.6 | 1.57 ± 0.49 | 3.67 ± 1.2 |
| CCGTTA | 2.09 ± 0.35 | 2.33 ± 0.74 | 2.95 ± 0.62 |
| AGAAAA | 3.05 ± 0.94 | 2.65 ± 0.37 | 3.92 ± 1.1 |
| ACCCCC | 2.28 ± 0.72 | 1.22 ± 0.62 | 3.15 ± 1.3 |
| CGCGTA | 2.07 ± 0.78 | 1.48 ± 0.56 | 2.18 ± 0.99 |
| CTATCC | 1.8 ± 0.78 | 1.58 ± 0.19 | 2.56 ± 0.37 |
| GGCAAA | 2.21 ± 1 | 3.13 ± 0.17 | 3.46 ± 0.93 |
| CCTGGG |  | 0.226 ± 0.082 |  |
| CGAATA | 2.14 ± 0.42 | 1.62 ± 0.12 | 2.57 ± 1 |

| Sequence | relative kcat/Km [1] | relative kcat/Km [2] | relative kcat/Km [3] |
| --- | --- | --- | --- |
| GTTAGG |  |  | 1.48 ± 0.18 |
| TAAACA | 1.85 ± 0.81 | 1.35 ± 0.24 | 1.75 ± 0.52 |
| TGGTAT | 0.93 ± 0.51 |  | 1.49 ± 1 |
| CAGATC | 2.45 ± 1.8 | 1.97 ± 0.33 | 2.55 ± 0.25 |
| ATCGTC | 2.63 ± 0.57 | 3.09 ± 0.84 | 5.08 ± 2.1 |
| TGTCTT | 3.02 ± 0.56 | 3.83 ± 1.2 | 4.75 ± 1.9 |
| ACAGCC | 2.4 ± 1.1 | 2.1 ± 0.58 | 2.21 ± 0.81 |
| CTGCTT |  |  | 1.22 ± 0.51 |
| CGCTAT | 3.49 ± 0.87 | 4.44 ± 1.6 | 5.95 ± 2.4 |
| CATTCG | 0.596 ± 0.4 |  | 1.47 ± 0.035 |
| CGATCC | 1.75 ± 0.92 | 2.33 ± 0.088 | 2.53 ± 0.38 |
| TATGAG | 0.55 ± 0.25 | 0.152 ± 0.019 | 1.2 ± 0.038 |
| GGAATC |  | 1.06 ± 0.53 | 1.22 ± 0.75 |
| AACGTA | 1.92 ± 0.44 | 2.44 ± 0.64 | 3.06 ± 1.4 |
| ATTCTC | 1.98 ± 1.2 | 2.42 ± 0.093 | 2.25 ± 0.56 |
| GAACAT | 2.55 ± 0.48 | 2.63 ± 0.68 | 4.14 ± 1.9 |
| ACCTCA | 3.35 ± 1.8 | 3.24 ± 0.27 | 4 ± 1.2 |
| GTACAG |  |  | 1.99 ± 0.4 |
| AACAGT |  |  | 2.24 ± 2 |
| CCAGAT | 2.9 ± 1.7 | 1.93 ± 0.26 | 2.22 ± 0.35 |
| AAATGT |  |  | 2.05 ± 2 |
| TGGAAC |  |  | 0.833 ± 0.35 |

| Sequence | relative kcat/Km [1] | relative kcat/Km [2] | relative kcat/Km [3] |
| --- | --- | --- | --- |
| CTTCTC | 2.7 ± 0.99 | 2.2 ± 0.35 | 2.77 ± 0.98 |
| AAGCCT | 1.05 ± 0.53 | 1.47 ± 0.083 | 1.34 ± 0.26 |
| ACTTAC | 3.88 ± 2.3 | 4.09 ± 0.096 | 5.29 ± 1.6 |
| TAATGT |  |  | 2.37 ± 2.3 |
| ACGCAG | 0.448 ± 0.095 |  | 1.49 ± 0.28 |
| TGCGAG |  | 0.318 ± 0.22 | 1.39 ± 0.28 |
| TCGTGG | 0.584 ± 0.19 |  | 1.06 ± 0.46 |
| TGCCGC | 2.45 ± 1.5 | 2.57 ± 0.23 | 3.68 ± 0.97 |
| AGTTAA | 3.63 ± 1.5 | 5.9 ± 0.68 | 7.15 ± 2.6 |
| CTTATG | 1.82 ± 1.8 | 0.705 ± 0.59 | 2.15 ± 0.35 |
| ACTGCA | 0.87 ± 0.37 | 0.819 ± 0.09 | 1.37 ± 0.24 |
| CTCATG |  | 1.28 ± 0.22 | 3.1 ± 0.052 |
| CACCCC | 1.67 ± 0.38 | 2.1 ± 0.89 | 3.14 ± 1.3 |
| ACTTCT | 2.31 ± 0.79 | 2.78 ± 0.18 | 3.19 ± 0.94 |
| TCGAGT |  | 0.672 ± 0.41 | 0.529 ± 0.17 |
| ATGATC | 2.3 ± 0.63 | 1.98 ± 0.29 | 2.3 ± 0.83 |
| CGTTAG | 2.87 ± 1.6 | 2.22 ± 0.3 | 4 ± 1.2 |
| CAACCC | 1.41 ± 0.43 | 1.26 ± 0.56 | 1.22 ± 0.096 |
| ATCGAA | 3.16 ± 0.35 | 5.71 ± 1.4 | 8.19 ± 3.6 |
| CATGAG |  |  | 1.2 ± 0.17 |
| CAGCGC | 1.95 ± 0.83 | 1.4 ± 0.14 | 2.09 ± 0.64 |
| AGACCA | 1.27 ± 0.22 | 1.42 ± 0.018 | 1.64 ± 0.34 |
